# Assay results from PubChem BioAssay (NCATS).
# Inconclusive means that the source gave no clear call. Such entries were picked first, then a sample of the others. No potency is given beside an inconclusive call; the fits are too rough. The source made the active and inactive calls. The call rests on the fitted dose curve; in most records, active means well fitted curve in the direction sought with a large enough effect; inconclusive means small, poorly fitted or top-dose-only effect, or another doubt; inactive means no such curve, though single readings can be large; an effect the other way counts as inactive or inconclusive.
# What was measured:
# [1] = BET inhibitor-based combinations targeting novel dependencies in MECOM-rearranged (r) AML: OCI-AML3 cell line (AID 2202232); conditions: CellTiter-Glo luminescence, 48 h; Potency: OCI-AML3 viability; viability (% of control): at 46 µM (top of the series); further: nearly all actives have a fitted effect of over 35% in size;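 on viability (% of control): plate controls were DMSO vehicle wells for no effect and wells without cells for full effect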
# Procedure, shortened: (§1)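 Cells were plated at 500 per well and exposed to an 11-point dose series of each drug for 48 hr. Viability was measured by CellTiter-Glo luminescence, normalized to DMSO and empty-well controls, and summarized as AUC and per-cell-line Z-AUC.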
# [2] = BET inhibitor-based combinations targeting novel dependencies in MECOM-rearranged (r) AML: MV-4-11 cell line (AID 2202233); conditions: MV-4-11 AML viability, CellTiter-Glo luminescence, 48 h; viability, % of control: at 46 µM (top of the series) unless noted; further: nearly all actives have a fitted effect of over 45% in size;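 on viability, % of control: plate controls were DMSO for no effect and blank wells for full effect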
# Procedure, shortened: (§2)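 Activity is given as area under the curve and as Z-AUC, mean-centred within each cell line. It comes from 11-point dose curves normalized to DMSO and empty wells. CellTiter-Glo luminescence was read after 48 hr drug exposure of 500 cells/well.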
# [3] = BET inhibitor-based combinations targeting novel dependencies in MECOM-rearranged (r) AML: HNT-34 cell line (AID 2202234); further: nearly all actives have a fitted effect of over 35% in size;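 on viability (% of control): plate controls were vehicle wells for no effect and cell-free wells for full effect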
# Procedure, shortened: as §2
# [4] = BET inhibitor-based combinations targeting novel dependencies in MECOM-rearranged (r) AML: UCSD-AML1 cell line (AID 2202235); conditions: UCSD-AML1 AML cells viability, CellTiter-Glo, 48 h; viability (% of control): at 46 µM (top of the series); further: nearly all actives have a fitted effect of over 40% in size;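 on viability (% of control): plate controls were DMSO vehicle wells for no effect and blank wells for full effect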
# Procedure, shortened: as §2
# [5] = BET inhibitor-based combinations targeting novel dependencies in MECOM-rearranged (r) AML: AML-191 cell line (AID 2202236; further: nearly all actives have a fitted effect of over 35% in size;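 on viability (% of control): plate controls were vehicle wells for no effect and wells without cells for full effect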)
# Procedure, shortened: as §1
# [6] = BET inhibitor-based combinations targeting novel dependencies in MECOM-rearranged (r) AML: AML-194 cell line (AID 2202237; further: nearly all actives have a fitted effect of over 40% in size;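 on viability (% of control): plate controls were vehicle wells for no effect and wells without cells for full effect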)
# Procedure, shortened: as §1
# Potency means the concentration at half of the fitted maximal effect; tags describe the fitted curve by direction and shape.
Structure (SMILES),Potency [1],Potency [2],Potency [3],Potency [4],Potency [5],Potency [6],"viability, % of control [2]"
COc1cc([C@H]2Oc3cc([C@H]4Oc5cc(O)cc(O)c5C(=O)[C@@H]4O)ccc3O[C@@H]2CO)ccc1O,"inconclusive [inhibitor, full curve, poor fit]","inconclusive [inhibitor, single point]","inconclusive [inhibitor, partial curve, poor fit]","inconclusive [inhibitor, single point]","inconclusive [inhibitor, partial curve, poor fit]",,
C[C@H](NC(=O)[C@@H](O)c1cc(F)cc(F)c1)C(=O)N[C@@H]1C(=O)N(C)c2ccccc2-c2ccccc21,inactive,inactive,inactive,,"inconclusive [inhibitor, full curve, poor fit]",,
Cn1cc(/C=C2\C(=O)Nc3cccnc32)c2ccccc21,"inconclusive [inhibitor, partial curve, poor fit]","inconclusive [inhibitor, full curve]","inconclusive [inhibitor, partial curve]","inconclusive [inhibitor, partial curve, poor fit]","inconclusive [inhibitor, partial curve]","inconclusive [inhibitor, partial curve]",
O=C(/C=C/N1C[C@H]2C[C@@H]1CN2c1ccccn1)c1ccccc1O,"inconclusive [inhibitor, single point]","inconclusive [inhibitor, single point]","inconclusive [inhibitor, single point]",inactive,,,
CC(/C=C/[C@@H]1C[C@]1(C)c1ccc2c(c1)C(C)(C)CCC2(C)C)=C\C(=O)O,"inconclusive [inhibitor, partial curve]","inconclusive [inhibitor, partial curve, poor fit]",active: 18.6 µM,"inconclusive [inhibitor, single point]","inconclusive [inhibitor, single point]","inconclusive [inhibitor, partial curve]",
Cn1cc(-c2ccc3nnc(C(F)(F)c4ccc5ncccc5c4)n3n2)cn1,"inconclusive [inhibitor, partial curve, poor fit]","inconclusive [inhibitor, partial curve, poor fit]","inconclusive [inhibitor, single point]",,"inconclusive [inhibitor, partial curve, poor fit]",,
c1ccc(CNCc2ccc(CN3CCCNCCNCCCNCC3)cc2)nc1,"inconclusive [inhibitor, partial curve, poor fit]",,inactive,inactive,inactive,,inconclusive: 108% [inhibitor]
Cc1c(F)cccc1NC(=O)Nc1ccc(Cl)c(S(=O)(=O)[C@H]2CCCNC2)c1O,inactive,inactive,inactive,,inactive,,
O=C(NOCCO)c1cc(CN2OCCCC2=O)c(F)c(F)c1Nc1ccc(I)cc1F,"inconclusive [inhibitor, full curve]","inconclusive [inhibitor, full curve]","inconclusive [inhibitor, full curve]","inconclusive [inhibitor, full curve]","inconclusive [inhibitor, full curve]","inconclusive [inhibitor, full curve]",
CC(C)C[C@H](NC(=O)[C@H](Cc1ccccc1)NC(=O)OCc1ccccc1)C(=O)C=O,inactive,inactive,inactive,"inconclusive [inhibitor, single point]",active: 26.3 µM,inactive,
Nc1c2c(nc3ccccc13)CCCC2,"inconclusive [inhibitor, full curve, poor fit]","inconclusive [inhibitor, partial curve, poor fit]","inconclusive [inhibitor, single point]","inconclusive [inhibitor, partial curve, poor fit]",,"inconclusive [inhibitor, partial curve, poor fit]",
